# This is one part of the list. Viral Rep nickase domains cut single-stranded DNA in vitro (1 h at 37 °C, 3 µM enzyme); the outer parts of the 90-letter strands are left off. A value is the log2 ratio of uncut reads to the pool without enzyme; uncut sequences lie near 0, cut ones below; no hit call is given. Reads are scaled to the total; uncut strands gain when others are lost, and binding without cutting may add a little.
# Assays:
# Test in all cases: uncleaved DNA left, log2 of reads against the no-enzyme library (log2 ratio); higher = less cleavage (more negative = more Rep cleavage of the k-mer); sequences stand for … in CTCGTCCG…ACCGGAGA
# [1] = tested on: T1, Rep nickase domain of Muscovy duck circovirus
# T1 sequence (Rep 1-111, printed without the tag): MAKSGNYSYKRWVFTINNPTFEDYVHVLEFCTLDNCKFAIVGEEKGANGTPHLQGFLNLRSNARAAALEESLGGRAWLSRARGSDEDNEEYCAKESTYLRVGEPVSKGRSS
# Experimental: (§1)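 A pool of 90-nt single-stranded DNAs with seven random bases just before the constant AC of the nick site (name = the seven bases) was cut by 3 µM recombinant His6-SUMO-tagged Rep nickase domain (300 nM DNA, 50 mM HEPES pH 8.0, 50 mM NaCl, 1 mM MnCl2, 1 h, 37 °C, three replicates). Uncut DNA was amplified and sequenced.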
# [2] = tested on: T2, Rep nickase domain of banana bunchy top virus
# T2 sequence (Rep 1-94, printed without the tag): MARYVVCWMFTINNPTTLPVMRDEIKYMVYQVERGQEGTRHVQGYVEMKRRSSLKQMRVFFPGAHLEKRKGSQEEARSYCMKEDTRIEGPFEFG
# Experimental: as §1
# [3] = tested on: T3, Rep nickase domain of cabbage leaf curl virus
# T3 sequence (Rep 1-116, printed without the tag): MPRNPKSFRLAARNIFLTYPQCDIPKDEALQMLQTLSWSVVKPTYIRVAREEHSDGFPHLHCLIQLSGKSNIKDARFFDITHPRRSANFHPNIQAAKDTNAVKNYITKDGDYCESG
# Experimental: as §1
# [4] = tested on: T4, Rep nickase domain of chickpea chlorotic dwarf virus
# T4 sequence (Rep 1-124, printed without the tag): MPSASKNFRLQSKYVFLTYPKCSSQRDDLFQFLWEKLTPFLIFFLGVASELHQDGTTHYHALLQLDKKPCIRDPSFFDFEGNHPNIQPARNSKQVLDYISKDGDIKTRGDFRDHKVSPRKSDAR
# Experimental: as §1
# [5] = tested on: T5, Rep nickase domain of faba bean necrotic yellows virus
# T5 sequence (Rep 1-98, printed without the tag): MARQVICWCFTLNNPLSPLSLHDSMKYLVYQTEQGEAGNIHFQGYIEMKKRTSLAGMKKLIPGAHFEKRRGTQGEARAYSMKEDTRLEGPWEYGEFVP
# Experimental: as §1
# [6] = tested on: T6, Rep nickase domain of maize striate mosaic virus
# T6 sequence (Rep 1-117, printed without the tag): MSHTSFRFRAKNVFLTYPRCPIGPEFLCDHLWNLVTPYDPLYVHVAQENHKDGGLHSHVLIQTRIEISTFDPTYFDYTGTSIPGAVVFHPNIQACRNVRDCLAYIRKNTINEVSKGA
# Experimental: as §1
# [7] = tested on: T7, Rep nickase domain of porcine circovirus 2
# T7 sequence (Rep 2-116, printed without the tag): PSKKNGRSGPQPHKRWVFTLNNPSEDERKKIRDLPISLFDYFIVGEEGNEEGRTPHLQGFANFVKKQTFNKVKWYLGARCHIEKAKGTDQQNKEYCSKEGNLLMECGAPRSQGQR
# Experimental: as §1
# [8] = tested on: T8, Rep nickase domain of tomato golden mosaic virus
# T8 sequence (Rep 1-124, printed without the tag): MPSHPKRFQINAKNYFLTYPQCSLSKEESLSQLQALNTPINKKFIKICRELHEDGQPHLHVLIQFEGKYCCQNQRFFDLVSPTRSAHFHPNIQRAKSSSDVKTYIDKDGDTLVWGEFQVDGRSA
# Experimental: as §1
# [9] = tested on: T9, Rep nickase domain of tomato yellow leaf curl virus
# T9 sequence (Rep 1-136, printed without the tag): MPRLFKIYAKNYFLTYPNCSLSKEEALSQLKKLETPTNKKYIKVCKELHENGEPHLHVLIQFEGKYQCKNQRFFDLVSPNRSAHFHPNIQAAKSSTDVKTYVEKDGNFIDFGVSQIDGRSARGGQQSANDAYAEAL
# Experimental: as §1
# [10] = tested on: T10, Rep nickase domain of wheat dwarf virus
# T10 sequence (Rep 1-137, printed without the tag): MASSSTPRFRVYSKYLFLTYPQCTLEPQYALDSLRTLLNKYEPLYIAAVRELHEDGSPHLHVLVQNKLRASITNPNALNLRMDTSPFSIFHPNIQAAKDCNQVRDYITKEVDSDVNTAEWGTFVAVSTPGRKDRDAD
# Experimental: as §1
Sequence,uncleaved DNA left (log2) [1],uncleaved DNA left (log2) [2],uncleaved DNA left (log2) [3],uncleaved DNA left (log2) [4],uncleaved DNA left (log2) [5],uncleaved DNA left (log2) [6],uncleaved DNA left (log2) [7],uncleaved DNA left (log2) [8],uncleaved DNA left (log2) [9],uncleaved DNA left (log2) [10]
GGTTGAA,0.144,-0.0136,0.43,1.04,0.0876,1.65,0.177,0.0599,0.131,0.178
TAGCTCT,0.00994,-0.0988,-1.51,-2.99,0.0204,-0.283,-3.32,-0.164,0.0535,-0.432
CCAAATG,-0.0769,-0.114,0.0274,0.414,-0.0211,-0.31,0.0911,-0.0211,-0.123,-0.185
AGAGCCC,-0.161,-0.0757,0.571,1.26,0.0359,1.73,-0.106,-0.00928,-0.033,0.0296
AGCGGGG,0.074,0.159,0.4,0.972,0.0151,1.62,0.216,0.228,0.101,0.111
CTTATAC,0.00107,0.0163,-0.0256,-0.95,-0.0754,-0.764,-0.0704,0.0333,-0.025,0.0482
TGTCCCT,-0.168,0.00782,0.126,-0.638,-0.141,0.638,-0.67,-0.17,0.00203,-0.0637
CCATAGA,0.031,0.0622,-0.336,-0.293,0.17,-1.11,0.117,0.0854,0.0519,0.0119
GCGATTG,-0.052,0.124,0.092,0.646,0.0179,1.62,0.111,0.116,-0.023,-0.000428
TTTTTGC,-0.0168,-0.0351,-0.621,-0.186,0.0669,-1.2,0.00399,-0.0772,-0.0378,-0.219
GTGCCAG,-0.1,0.0469,-0.251,0.0203,-0.0631,-0.512,-0.0187,-0.00631,0.0826,0.000201
AAAAGCA,0.0635,0.109,-0.423,-1.48,0.143,-1.08,-0.0738,0.113,0.134,0.1
CCCGTGG,-0.105,0.0459,0.0155,0.499,-0.236,0.337,0.0231,-0.0487,-0.0688,-0.0359
TTTGAAT,-0.0214,-0.0328,0.0597,-0.428,0.00337,-0.233,-0.211,-0.132,-0.0546,-0.0572
AGTCTAG,0.0266,-0.0676,-0.593,-0.749,-0.00241,-1.23,0.107,0.0405,-0.000331,-0.00849
CGTTGGA,-0.0979,0.000924,-0.255,-0.474,-0.0804,-1.04,-0.0697,-0.205,-0.0734,-0.053
CGGTGGG,0.0478,-0.0401,-0.482,-0.427,-0.0112,-0.562,0.0741,-0.0459,0.0693,-0.035
CAGCCAC,0.0592,-0.0244,-0.0432,-0.249,0.0837,-0.506,-0.0123,0.0382,0.0591,0.0472
CCCGACA,-0.197,-0.236,-0.199,-0.978,-0.248,-0.634,-0.385,-0.341,-0.285,-0.311
TAGACGT,0.035,0.068,0.262,0.487,0.057,0.576,-1.91,0.0585,0.0459,0.117
ACGAATG,-0.108,0.103,-0.0793,0.497,0.0751,0.807,0.135,-0.0411,-0.157,-0.0831
GATAATC,0.138,0.142,0.284,0.657,0.0635,0.701,0.16,0.067,0.0766,0.0948
GCGTGCG,-0.137,-0.118,-0.655,0.782,-0.0926,0.0184,0.145,-0.203,-0.24,-0.287
AACTCCA,-0.202,-0.12,-0.181,-2.2,-0.124,-0.00632,-2.51,-0.00233,-0.0544,0.0562
TCAGTGA,-0.0232,-0.0764,-0.219,-0.338,-0.0207,-0.83,0.0981,-0.063,-0.0351,-0.0262
ATCGCCC,-0.0475,0.0445,-0.117,-0.126,0.104,-0.33,-0.0701,-0.0723,0.012,-0.0703
GGTGTCG,0.0684,-0.0835,-0.429,0.122,0.0161,-0.347,0.153,-0.053,-0.163,-0.0228
TCGGCTT,0.213,0.0171,0.0888,-0.213,-0.0177,0.942,-0.0292,0.0702,-0.134,-0.0373
CGGGACA,-0.0953,-0.0297,0.769,1.99,-0.196,2.23,0.107,0.0211,-0.051,0.0793
AGCCTAC,-0.0773,-0.134,-0.242,-0.732,-0.0731,0.0941,-0.126,-0.129,-0.0521,-0.0671
